# Experimental data as given in a collection of fitness landscapes (doi:10.1038/s41467-024-54723-y).
# In all, about 18,000 sequences were measured (“TetR repression strength (sort-seq, GFP reporter)”: median about 0.23, highest 2% from about 0.68 on). Some of the results follow.
# Biological target: TetR (class B, Tn10) (UniProt P04483)
# Test: TetR repression strength (sort-seq, GFP reporter) (relative to tetO2 = 1); higher = stronger repression
# Conditions: E. coli
# In short: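 E. coli SIG10-MAX carried a low-copy plasmid library with eight randomized operator positions between a constitutive promoter and sfGFP, with TetR constitutively expressed. Cells grew 5 h at 37 °C in LB with 50 µg/mL chloramphenicol, then 10^6 cells were FACS-sorted into 13 fluorescence bins, each Illumina-sequenced. Repression strength is the top bin index plus one minus the read-weighted mean bin, divided by the wild-type operator value. Three independent transformations; variants with ≥30 reads in all replicates and CV ≤0.5 were averaged.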
# UniProt P04483, sequence (P04483 whole entry): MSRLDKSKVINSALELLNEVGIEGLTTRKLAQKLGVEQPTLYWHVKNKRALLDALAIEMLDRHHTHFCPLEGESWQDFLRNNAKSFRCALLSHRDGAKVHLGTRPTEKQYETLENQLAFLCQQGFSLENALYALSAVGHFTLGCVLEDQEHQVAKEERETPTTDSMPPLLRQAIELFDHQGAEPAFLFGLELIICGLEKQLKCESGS
row,Sequence,TetR repression strength
1,TCCCGTCTAGTGCACGAGA,0.218
2,TCCCCGGGAGTGGTGGAGA,0.137
3,TCCCTGACAGTCGATGAGA,0.196
4,TCCCTCACAGTGGCGGAGA,0.218
5,TCCCACACAGTTCGGGAGA,0.406
6,TCCCGCCCAGTGTGAGAGA,0.493
7,TCCCAGTGAGTCGGGGAGA,0.295
8,TCCCGTTGAGTGTGGGAGA,0.187
9,TCCCGCGAAGTAGTCGAGA,0.196
10,TCCCTATGAGTAAATGAGA,0.225
11,TCCCAGTGAGTATCGGAGA,0.189
12,TCCCCAATAGTTTTTGAGA,0.382
13,TCCCCAACAGTGTTGGAGA,0.292
14,TCCCACTGAGTATTTGAGA,0.202
15,TCCCGGGGAGTACAAGAGA,0.3
16,TCCCATCAAGTTACAGAGA,0.258
17,TCCCAAGCAGTCCCCGAGA,0.321
18,TCCCCGAGAGTGCCCGAGA,0.2
19,TCCCCCACAGTAGAGGAGA,0
20,TCCCTTCGAGTTTTTGAGA,0.327
21,TCCCGGTAAGTCAGAGAGA,0.458
22,TCCCAGTAAGTGAGGGAGA,0.25
23,TCCCAGCGAGTACAAGAGA,0.298
24,TCCCAGTGAGTACGGGAGA,0.211
25,TCCCCATCAGTGAGCGAGA,0.19
26,TCCCCAGGAGTACGAGAGA,0.325

row,Sequence,TetR repression strength
1,TCCCGCTTAGTTACGGAGA,1.2
2,TCCCCTAGAGTGTTCGAGA,0.361
3,TCCCTGGGAGTGGGCGAGA,0.284
4,TCCCAATCAGTCCGCGAGA,0.295
5,TCCCATGTAGTGTCCGAGA,0.31
6,TCCCAAGGAGTTCGGGAGA,0.324
7,TCCCGTCAAGTCGGTGAGA,0.112
8,TCCCCCGGAGTGAACGAGA,0.145
9,TCCCCGTCAGTAGGAGAGA,0.0333
10,TCCCCAAAAGTAGGGGAGA,0.257
11,TCCCCCGGAGTGGAAGAGA,0.207
12,TCCCGTAAAGTTGTGGAGA,0.331
13,TCCCAATCAGTGCTGGAGA,0.531
14,TCCCGCTTAGTGATGGAGA,0.427
15,TCCCCGCTAGTAAGCGAGA,0.263
16,TCCCCAATAGTCTGTGAGA,0.162
17,TCCCCTCTAGTCTGGGAGA,0.214
18,TCCCTTCTAGTAAGCGAGA,0.289
19,TCCCGGGAAGTGAGGGAGA,0.211
20,TCCCGTGGAGTGACCGAGA,0.119
21,TCCCGTGTAGTGTAGGAGA,0.201
22,TCCCGAGTAGTCTGAGAGA,0.35
23,TCCCGTACAGTAGTTGAGA,0.18
24,TCCCCAATAGTTAACGAGA,0
25,TCCCGTAGAGTTCAGGAGA,0.0439
